Reference: article PMC10668032
This is one part of the list. At the low end of the ranking the order means little.

What follows are sequences tested against SIX1 homeodomain (reference allele) (UniProt Q15475) (assay: universal protein binding microarray). Details: Universal all-10-mer PBM (8x60K, AMADID 030236), 300 nM GST-tagged protein, Alexa Fluor 488 anti-GST; buffer, salt, pH and temperature not stated; high values mean tight binding; most listed sequences are background and not binding sites; double strand, one strand shown.
Sequence CACTCCTC has a binding signal of -0.102 E-score.
Sequence GTCCATCA has a binding signal of 0.00175 E-score.
CGAGCATC was tested, and the binding signal was -0.0416 E-score.
Sequence AGGTCTCG has a binding signal of 0.0111 E-score.
ATGCATAG was tested, and the binding signal was 0.0346 E-score.
ATCTAAAC gave a binding signal of 0.132 E-score.
For ACGGCTTA, the binding signal was -0.0594 E-score.
Work on AGTTATGC yielded a binding signal of -0.142 E-score.
Work on CATAGGAA yielded a binding signal of -0.0115 E-score.
Work on CACACGCA yielded a binding signal of 0.0211 E-score.
Work on AGCTTCAT yielded a binding signal of -0.183 E-score.
CTGAGTCA gave a binding signal of -0.0969 E-score.
For CCCCAAAG, the binding signal was -0.257 E-score.
AGACATAC gave a binding signal of 0.00625 E-score.
Work on ATCGAAAC yielded a binding signal of 0.2 E-score.
Sequence GATCGGAA has a binding signal of 0.167 E-score.
CCGCAGCA gave a binding signal of -0.189 E-score.
In the case of GGTGCTAC, the binding signal is reported as -0.00308 E-score.
Sequence ATTCGAGC has a binding signal of -0.00894 E-score.
TCTAGAAA was tested, and the binding signal was -0.104 E-score.
For TCTCTTAA, the binding signal was -0.0663 E-score.
In the case of CAGCGGCG, the binding signal is reported as -0.137 E-score.
Work on CTCGTTAA yielded a binding signal of -0.127 E-score.
GGGGCCGA gave a binding signal of -0.195 E-score.
Sequence ACCCCTCG has a binding signal of 0.215 E-score.
AGGCCAGG showed a binding signal of -0.0172 E-score.
Work on AAAGCGTC yielded a binding signal of -0.2 E-score.
GAGGGGCC showed a binding signal of -0.124 E-score.
With CTTCGCCC the binding signal was -0.26 E-score.
CATAGCGG gave a binding signal of 0.048 E-score.
CCGTAATA gave a binding signal of 0.205 E-score.
Work on GCTGGACA yielded a binding signal of -0.192 E-score.
In the case of GGTAGTTA, the binding signal is reported as -0.0773 E-score.
AGGTTGAA was tested, and the binding signal was -0.00859 E-score.
Sequence GTCCCCAA has a binding signal of -0.128 E-score.
For ACCGCATG, the binding signal was -0.00694 E-score.
For AGAGCTGG, the binding signal was 0.0647 E-score.
CCTCGAGG showed a binding signal of 0.197 E-score.
For GGAGTGCA, the binding signal was -0.019 E-score.
CCGCCGGA gave a binding signal of 0.0602 E-score.
Sequence GCCCAGTA has a binding signal of -0.129 E-score.
With GCAGATGC the binding signal was -0.0772 E-score.
Work on CGATCAAG yielded a binding signal of 0.043 E-score.
For AATATGCC, the binding signal was 0.16 E-score.
For CATCTGGG, the binding signal was 0.0392 E-score.
Work on CCTGGGGA yielded a binding signal of -0.0463 E-score.
For CTGGAAAC, the binding signal was -0.147 E-score.
With ACCTATAA the binding signal was -0.0384 E-score.
Work on ATGGTATA yielded a binding signal of 0.336 E-score.
Work on CAGCCTAG yielded a binding signal of -0.136 E-score.
With CATTGCAA the binding signal was -0.0773 E-score.
CTTGAGTC showed a binding signal of -0.194 E-score.
CATGGCCA gave a binding signal of -0.0546 E-score.
In the case of ACGCCTAG, the binding signal is reported as -0.107 E-score.
In the case of CCCTTCGA, the binding signal is reported as -0.158 E-score.
For GTTCCTCA, the binding signal was -0.315 E-score.
CACAAGGC showed a binding signal of -0.22 E-score.
AAAATATA was tested, and the binding signal was 0.0266 E-score.
For CGGTTACC, the binding signal was 0.136 E-score.
CGGACCTC was tested, and the binding signal was -0.188 E-score.
CAGATTAG showed a binding signal of 0.0645 E-score.
ACCAAAGA gave a binding signal of -0.0185 E-score.
CTTGTCGC showed a binding signal of -0.263 E-score.
For GTCATTGA, the binding signal was 0.0717 E-score.
CGAATTAC showed a binding signal of -0.175 E-score.
GCTTACTA showed a binding signal of -0.0331 E-score.
For GGCCATGA, the binding signal was 0.128 E-score.
AGACGTTC showed a binding signal of -0.0856 E-score.
ATGGTCGA gave a binding signal of -0.0224 E-score.
AAAGACAG was tested, and the binding signal was -0.136 E-score.
With ATCCTAAG the binding signal was 0.167 E-score.
CCCATCCA gave a binding signal of 0.1 E-score.
In the case of AAATGGAG, the binding signal is reported as -0.0798 E-score.
CAGGATCG showed a binding signal of 0.297 E-score.
Sequence CACTTATG has a binding signal of 0.00777 E-score.
Work on CCGAATTC yielded a binding signal of -0.111 E-score.
With AGAAAGTC the binding signal was -0.357 E-score.
CCGATACG gave a binding signal of 0.425 E-score.
GTTCTGCA showed a binding signal of -0.148 E-score.
Work on CTTCCCGA yielded a binding signal of 0.0961 E-score.
In the case of AAATCACC, the binding signal is reported as 0.0679 E-score.
With AAGTAGTC the binding signal was -0.177 E-score.
With AAGTCTAG the binding signal was -0.243 E-score.
In the case of CCTTCTTC, the binding signal is reported as -0.0405 E-score.
For AGCTCCTC, the binding signal was -0.11 E-score.
CACCGAGG showed a binding signal of 0.0607 E-score.
